Measured values as given in the supplement of paper PMC8728848.
The list shows a part of the results.

How the values were obtained:
Experiment in all cases: glycan array binding signal (z-score within array); higher = stronger binding
Settings in all cases: glycan notation: IUPAC condensed, linker removed
[1] = biological target: Fuc(a1-2)Gal(b1-4)[Fuc(a1-3)]GlcNAc
In short: (§1)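 Columns mapping to the same glycan were averaged after glycan names were converted to IUPAC-condensed notation. The data come from 3228 arrays in the Consortium for Functional Glycomics database, limited to those with an available protein sequence. Binding is reported as a within-array Z-score averaged across arrays of one protein sequence and across linkers.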

[2] = biological target: Fuc(a1-2)Gal(b1-4)[Fuc(a1-3)]GlcNAc(b1-2)Man(a1-3)[Fuc(a1-2)Gal(b1-4)[Fuc(a1-3)]GlcNAc(b1-2)Man(a1-6)]Man(b1-4)GlcNAc(b1-4)[Fuc(a1-6)]GlcNAc
In short: as §1

[3] = biological target: Fuc(a1-2)Gal(b1-4)[Fuc(a1-3)]GlcNAc(b1-2)[Fuc(a1-2)Gal(b1-4)[Fuc(a1-3)]GlcNAc(b1-4)]Man(a1-3)[Fuc(a1-2)Gal(b1-4)[Fuc(a1-3)]GlcNAc(b1-2)Man(a1-6)]Man(b1-4)GlcNAc(b1-4)GlcNAc
In short: as §1

[4] = biological target: Fuc(a1-2)Gal(b1-4)[Fuc(a1-3)]GlcNAc(b1-3)Gal(b1-4)[Fuc(a1-3)]GlcNAc
In short: as §1

[5] = biological target: Fuc(a1-2)Gal(b1-4)[Fuc(a1-3)]GlcNAc(b1-3)Gal(b1-4)[Fuc(a1-3)]GlcNAc(b1-3)Gal(b1-4)[Fuc(a1-3)]GlcNAc
In short: as §1

[6] = biological target: Fuc(a1-2)Gal(b1-4)[Fuc(a1-3)]GlcNAc(b1-3)GalNAc
In short: as §1

[7] = biological target: Fuc(a1-2)Gal(b1-4)[Fuc(a1-3)]GlcNAc(b1-3)[Neu5Ac(a2-6)Gal(b1-4)GlcNAc(b1-6)]Gal(b1-4)Glc
In short: as §1

[8] = biological target: Fuc(a1-2)Gal3S(b1-4)GlcNAc
In short: as §1

[9] = biological target: Fuc(a1-2)Gal6S(b1-3)GlcNAc
In short: as §1

[10] = biological target: Fuc(a1-2)Gal6S(b1-3)GlcNAc6S
In short: as §1

Fuc(a1-2)Gal6S(b1-4)Glc = biological target: Fuc(a1-2)Gal6S(b1-4)Glc
In short: as §1

[11] = biological target: Fuc(a1-2)Gal6S(b1-4)Glc6S
In short: as §1

Fuc(a1-2)[Gal(a1-3)]Gal = biological target: Fuc(a1-2)[Gal(a1-3)]Gal
In short: as §1

[12] = biological target: Fuc(a1-2)[Gal(a1-3)]Gal(b1-3)GalNAc
In short: as §1

[13] = biological target: Fuc(a1-2)[Gal(a1-3)]Gal(b1-3)GalNAc(b1-3)Gal(a1-4)Gal(b1-4)Glc
In short: as §1

[14] = biological target: Fuc(a1-2)[Gal(a1-3)]Gal(b1-3)GlcNAc
In short: as §1

[15] = biological target: Fuc(a1-2)[Gal(a1-3)]Gal(b1-3)GlcNAc(b1-2)Man(a1-3)[Fuc(a1-2)[Gal(a1-3)]Gal(b1-3)GlcNAc(b1-2)Man(a1-6)]Man(b1-4)GlcNAc(b1-4)GlcNAc
In short: as §1

[16] = biological target: Fuc(a1-2)[Gal(a1-3)]Gal(b1-3)GlcNAc(b1-2)Man(a1-3)[Fuc(a1-2)[Gal(a1-3)]Gal(b1-3)GlcNAc(b1-2)Man(a1-6)]Man(b1-4)GlcNAc(b1-4)[Fuc(a1-6)]GlcNAc
In short: as §1

[17] = biological target: Fuc(a1-2)[Gal(a1-3)]Gal(b1-3)GlcNAc(b1-3)GalNAc
In short: as §1

[18] = biological target: Fuc(a1-2)[Gal(a1-3)]Gal(b1-3)GlcNAc(b1-6)GalNAc
In short: as §1

[19] = biological target: Fuc(a1-2)[Gal(a1-3)]Gal(b1-4)Glc
In short: as §1

[20] = biological target: Fuc(a1-2)[Gal(a1-3)]Gal(b1-4)GlcNAc
In short: as §1

[21] = biological target: Fuc(a1-2)[Gal(a1-3)]Gal(b1-4)GlcNAc(b1-2)Man
In short: as §1

[22] = biological target: Fuc(a1-2)[Gal(a1-3)]Gal(b1-4)GlcNAc(b1-2)Man(a1-3)[Fuc(a1-2)[Gal(a1-3)]Gal(b1-4)GlcNAc(b1-2)Man(a1-6)]Man(b1-4)GlcNAc(b1-4)GlcNAc
In short: as §1

[23] = biological target: Fuc(a1-2)[Gal(a1-3)]Gal(b1-4)GlcNAc(b1-2)Man(a1-3)[Fuc(a1-2)[Gal(a1-3)]Gal(b1-4)GlcNAc(b1-2)Man(a1-6)]Man(b1-4)GlcNAc(b1-4)[Fuc(a1-6)]GlcNAc
In short: as §1

[24] = biological target: Fuc(a1-2)[Gal(a1-3)]Gal(b1-4)GlcNAc(b1-3)GalNAc
In short: as §1

[25] = biological target: Fuc(a1-2)[Gal(a1-3)]Gal(b1-4)GlcNAc(b1-3)[Fuc(a1-2)[Gal(a1-3)]Gal(b1-4)GlcNAc(b1-6)]GalNAc
In short: as §1

[26] = biological target: Fuc(a1-2)[Gal(a1-3)]Gal(b1-4)GlcNAc(b1-6)GalNAc
In short: as §1

[27] = biological target: Fuc(a1-2)[Gal(a1-3)]Gal(b1-4)[Fuc(a1-3)]Glc
In short: as §1

[28] = biological target: Fuc(a1-2)[Gal(a1-3)]Gal(b1-4)[Fuc(a1-3)]GlcNAc
In short: as §1

[29] = biological target: Fuc(a1-2)[Gal(a1-3)]Gal(b1-4)[Fuc(a1-3)]GlcNAc(b1-3)GalNAc
In short: as §1

[30] = biological target: Fuc(a1-2)[Gal(a1-4)]Gal(b1-4)GlcNAc
In short: as §1

[31] = biological target: Fuc(a1-2)[GalNAc(a1-3)]Gal
In short: as §1

[32] = biological target: Fuc(a1-2)[GalNAc(a1-3)]Gal(b1-3)GalNAc(a1-3)[Fuc(a1-2)]Gal(b1-4)GlcNAc
In short: as §1

[33] = biological target: Fuc(a1-2)[GalNAc(a1-3)]Gal(b1-3)GalNAc(b1-3)Gal(a1-4)Gal(b1-4)Glc
In short: as §1

[34] = biological target: Fuc(a1-2)[GalNAc(a1-3)]Gal(b1-3)GlcNAc
In short: as §1

[35] = biological target: Fuc(a1-2)[GalNAc(a1-3)]Gal(b1-3)GlcNAc(b1-2)Man(a1-3)[Fuc(a1-2)[GalNAc(a1-3)]Gal(b1-3)GlcNAc(b1-2)Man(a1-6)]Man(b1-4)GlcNAc(b1-4)GlcNAc
In short: as §1

[36] = biological target: Fuc(a1-2)[GalNAc(a1-3)]Gal(b1-3)GlcNAc(b1-2)Man(a1-3)[Fuc(a1-2)[GalNAc(a1-3)]Gal(b1-3)GlcNAc(b1-2)Man(a1-6)]Man(b1-4)GlcNAc(b1-4)[Fuc(a1-6)]GlcNAc
In short: as §1

B1: PVL (Psathyrella velutina), Q309D1_9AGAR (protein)
chain: MSVVVISQALPVPTRIPGVADLVGFGNGGVYIIRNSLLIQVVKVINNFGYDAGGWRVEKHVRLLADTTGDNQPDVVGFGENGVWISTNNGNNTFVDPPKMVLANFAYAAGGWRVEKHIRFMADLRKTGRADIVGFGDGGIYISRNNGGGQFAPAQLALNNFGYAQGWRLDRHLRFLADVTGDGLLDVVGFGENQVYIARNSGNGTFQPAQAVVNNFCIGAGGWTISAHPRVVADLTGDRKADILGFGVAGVYTSLNNGNGTFGAVNLVLKDFGVNSGWRVEKHVRCVSSLTNKKVGDIIGFGDAGVYVALNNGNGTFGPVKRVIDNFGYNQGWRVDKHPRFVVDLTGDGCADIVGFGENSVWACMNKGDGTFGPIMKLIDDMTVSKGWTLQKTVRYAANLYL
- glycan array binding signal (z-score) [1]: -0.367
- glycan array binding signal (z-score) [2]: -0.332
- glycan array binding signal (z-score) [3]: -0.37
- glycan array binding signal (z-score) [4]: -0.361
- glycan array binding signal (z-score) [5]: -0.344
- glycan array binding signal (z-score) [6]: -0.371
- glycan array binding signal (z-score) [7]: -0.366
- glycan array binding signal (z-score) [8]: -0.37
- glycan array binding signal (z-score) [9]: -0.364
- glycan array binding signal (z-score) [10]: -0.319
- glycan array binding signal (z-score) (Fuc(a1-2)Gal6S(b1-4)Glc): -0.355
- glycan array binding signal (z-score) [11]: -0.369
- glycan array binding signal (z-score) (Fuc(a1-2)[Gal(a1-3)]Gal): -0.368
- glycan array binding signal (z-score) [12]: -0.368
- glycan array binding signal (z-score) [13]: -0.314
- glycan array binding signal (z-score) [14]: -0.368
- glycan array binding signal (z-score) [15]: -0.379
- glycan array binding signal (z-score) [16]: -0.351
- glycan array binding signal (z-score) [17]: -0.368
- glycan array binding signal (z-score) [18]: -0.368
- glycan array binding signal (z-score) [19]: -0.359
- glycan array binding signal (z-score) [20]: -0.363
- glycan array binding signal (z-score) [21]: -0.372
- glycan array binding signal (z-score) [22]: -0.358
- glycan array binding signal (z-score) [23]: -0.366
- glycan array binding signal (z-score) [24]: -0.361
- glycan array binding signal (z-score) [25]: -0.323
- glycan array binding signal (z-score) [26]: -0.371
- glycan array binding signal (z-score) [27]: -0.366
- glycan array binding signal (z-score) [28]: -0.361
- glycan array binding signal (z-score) [29]: -0.368
- glycan array binding signal (z-score) [30]: -0.366
- glycan array binding signal (z-score) [31]: -0.347
- glycan array binding signal (z-score) [32]: -0.36
- glycan array binding signal (z-score) [33]: -0.375
- glycan array binding signal (z-score) [34]: -0.281
- glycan array binding signal (z-score) [35]: -0.357
- glycan array binding signal (z-score) [36]: -0.363
